The whole screen tested about 310,000 compounds, of which about 2,200 (0.71%) showed an effect of 50% or more. Effects have a minus sign here. The list shows a part of the results.

The source of these data is article PMC4336329 (PLoS ONE, 2015).

The target of the experiment is human ether-à-go-go-related gene (hERG) potassium channel (human, UniProt Q12809). The experiment in a line: primary screen, population patch clamp on CHO cells stably expressing hERG.
human ether-à-go-go-related gene (hERG) potassium channel, sequence (Q12809 whole entry, looked up): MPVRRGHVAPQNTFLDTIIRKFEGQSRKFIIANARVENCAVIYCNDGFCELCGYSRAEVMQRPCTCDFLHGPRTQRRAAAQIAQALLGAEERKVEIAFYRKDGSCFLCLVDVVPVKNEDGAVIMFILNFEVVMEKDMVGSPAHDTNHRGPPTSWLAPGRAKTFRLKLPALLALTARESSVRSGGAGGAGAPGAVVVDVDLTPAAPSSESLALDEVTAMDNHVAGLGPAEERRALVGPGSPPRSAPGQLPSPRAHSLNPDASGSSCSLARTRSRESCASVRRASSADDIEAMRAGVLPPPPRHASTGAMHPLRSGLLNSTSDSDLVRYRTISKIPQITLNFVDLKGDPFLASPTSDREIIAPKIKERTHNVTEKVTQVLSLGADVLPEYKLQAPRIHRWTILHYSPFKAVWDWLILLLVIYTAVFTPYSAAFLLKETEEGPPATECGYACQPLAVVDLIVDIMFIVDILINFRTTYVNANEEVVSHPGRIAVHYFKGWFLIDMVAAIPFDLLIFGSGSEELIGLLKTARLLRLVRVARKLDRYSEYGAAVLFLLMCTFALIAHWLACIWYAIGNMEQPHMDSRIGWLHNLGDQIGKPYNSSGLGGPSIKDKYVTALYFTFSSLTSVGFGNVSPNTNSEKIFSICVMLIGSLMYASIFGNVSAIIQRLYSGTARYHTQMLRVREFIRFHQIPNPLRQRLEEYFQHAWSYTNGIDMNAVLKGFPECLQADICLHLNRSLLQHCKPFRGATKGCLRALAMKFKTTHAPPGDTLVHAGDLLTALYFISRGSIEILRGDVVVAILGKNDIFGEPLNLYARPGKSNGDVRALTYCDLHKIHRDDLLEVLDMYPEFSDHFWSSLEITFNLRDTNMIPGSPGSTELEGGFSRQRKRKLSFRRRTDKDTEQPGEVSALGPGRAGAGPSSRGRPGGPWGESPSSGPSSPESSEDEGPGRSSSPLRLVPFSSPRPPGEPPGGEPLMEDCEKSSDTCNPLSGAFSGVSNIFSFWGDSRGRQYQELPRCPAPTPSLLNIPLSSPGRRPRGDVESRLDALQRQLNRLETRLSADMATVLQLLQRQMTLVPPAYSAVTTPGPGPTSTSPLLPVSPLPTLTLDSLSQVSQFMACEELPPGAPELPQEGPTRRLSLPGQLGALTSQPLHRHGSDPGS
`CC(=O)[C@@H]1[C@@H]2C(=O)N(C3CCCCC3)C(=O)[C@@H]2C2c3ccccc3C=CN21` (stereo partly drawn): the “hERG current change (%, negative = inhibition) at 1uM” value stood at 10.4%. Then `O=C(CNC(=O)c1ccc(Br)o1)Nc1ccncc1`, with 1.96%. Take `O=C(CSc1n[nH]c(-c2cccs2)n1)NC1CCS(=O)(=O)C1` (stereo not drawn): the “hERG current change (%, negative = inhibition) at 1uM” value is on record as 13.1%.

With `Cc1sc(-c2c(C#N)c(N)nc3c2CCCCCC3)cc1[N+](=O)[O-]`, the “hERG current change (%, negative = inhibition) at 1uM” value was 1.92%.

As to `Nc1cccc(C(=O)OCC(=O)Nc2cccc3c2C(=O)c2ccccc2C3=O)c1`, the “hERG current change (%, negative = inhibition) at 1uM” value is given as 14.1%.

With `O=C(Nc1cccc2ccccc12)c1cnccn1`, the “hERG current change (%, negative = inhibition) at 1uM” value came to 4.55%.

Take `Nc1c(NCCN2CCOCC2)c2ccccc2oc1=O`: the “hERG current change (%, negative = inhibition) at 1uM” value was 10.3%. Regarding `C=CCN=C(NC#N)SCc1ccccc1`, the “hERG current change (%, negative = inhibition) at 1uM” value was 18.3%.

For `CCOC(=O)C1=C(C)NC(=O)NC1c1ccc(Br)s1` (stereo not drawn), the “hERG current change (%, negative = inhibition) at 1uM” value is 3.47%.

Turning to `COc1cc(C(=O)CSc2nncn2C)cc(OC)c1OC`, the “hERG current change (%, negative = inhibition) at 1uM” value is on record as 3.79%. In the case of `Cc1ccccc1OCC(=O)N/N=C/c1cccn1C`, the “hERG current change (%, negative = inhibition) at 1uM” value amounted to 14.6%. In the case of `Cc1ccccc1Cn1c(C(C)O)nc2ccccc21` (stereo not drawn), the “hERG current change (%, negative = inhibition) at 1uM” value is recorded as 11.6%. As for `CC1CCN(CC(=O)Nc2ccc(S(=O)(=O)N3CCCCC3)cc2)CC1`, the “hERG current change (%, negative = inhibition) at 1uM” value is -1.04%. With `Cc1cccn2c(=O)c(C=C(C#N)C#N)c(N3CCN(c4cccc(Cl)c4)CC3)nc12`, the “hERG current change (%, negative = inhibition) at 1uM” value turned out to be 8.05%.

Turning to `O=C(CNCCC1=CCCCC1)Nc1ccc(N2CCCCCC2)cc1.O=C(O)C(=O)O`, the “hERG current change (%, negative = inhibition) at 1uM” value is 16.5%. `CCN(CC)c1nc(N)c2c(N)nc3c(c2c1C#N)CC(c1ccccc1)O3` (stereo not drawn): the “hERG current change (%, negative = inhibition) at 1uM” value was determined as 11.5%. `COc1cccc(CN2CCN(C(=O)c3cccc4ccccc34)CC2)c1.O=C(O)C(=O)O`: the “hERG current change (%, negative = inhibition) at 1uM” value is recorded as 5.1%. As to `CCOc1ccc(Br)cc1S(=O)(=O)NCCN(C)C`, the “hERG current change (%, negative = inhibition) at 1uM” value is on record as 9.99%. Then `CC1CN(C(=S)Nc2ccccc2C(F)(F)F)CC(C)O1` (stereo not drawn), with -6.65%; and `CC/C(=N\NC(=S)Nc1cccc(C)c1)c1ccccc1`, with 11.7%. With `COc1ccc(Cc2nnc(NC(=O)c3ccccc3F)s2)cc1`, the “hERG current change (%, negative = inhibition) at 1uM” value is 18.9%. Consider `COc1ccc(-n2c(-c3ccccc3)cc3c2CCCC3=O)cc1`, for which the “hERG current change (%, negative = inhibition) at 1uM” value came out at 2.11%. Regarding `C[C@H](N)c1nnc(SCc2c(Cl)cccc2Cl)o1.Cl`, the “hERG current change (%, negative = inhibition) at 1uM” value is 5.41%. Regarding `CON/C=N/C(=S)Nc1ncc(C(F)(F)F)cc1Cl`, the “hERG current change (%, negative = inhibition) at 1uM” value was found to be 13.9%. On to `CCOC(=O)C(c1ccccc1)N1CCN(c2ccc(OC)cc2)CC1` (stereo not drawn), for which the “hERG current change (%, negative = inhibition) at 1uM” value is 11.7%.

As to `O=S(=O)(Nc1ccc2c(c1)OCO2)c1cccs1`, the “hERG current change (%, negative = inhibition) at 1uM” value was found to be 11.6%. As to `COC(=O)c1ccc(NC(=O)C2CCN(C(=O)Nc3ccccc3)CC2)cc1`, the “hERG current change (%, negative = inhibition) at 1uM” value came to 1.94%. As for `COC(=O)Nc1nc2ccc(Sc3ccccc3)cc2[nH]1`, the “hERG current change (%, negative = inhibition) at 1uM” value worked out at 14.4%. As to `CCOC(=O)c1c(C(C)(C)C)oc2ccc(OCC#N)cc12`, the “hERG current change (%, negative = inhibition) at 1uM” value is reported as 7.28%.

Consider `CC(=O)c1ccc(N(CC(=O)NC2CCCC2)C(=O)CNC(=O)c2cccs2)cc1`, for which the “hERG current change (%, negative = inhibition) at 1uM” value came to 12.2%. As for `CCOC(=O)C1CCCN(C2=NC(=O)/C(=C/c3ccc(O)c(OC)c3)S2)C1` (stereo not drawn), the “hERG current change (%, negative = inhibition) at 1uM” value is recorded as -10.8%. As to `COc1ccc(CN(C)C(=O)CNC(=O)Cc2cccc3ccccc23)c(OC)c1OC`, the “hERG current change (%, negative = inhibition) at 1uM” value is 8.2%. On to `CC(=O)C(C(C)=O)c1cc(NS(=O)(=O)c2ccccc2)ccc1NS(=O)(=O)c1ccccc1`, for which the “hERG current change (%, negative = inhibition) at 1uM” value worked out at 13.1%.

For the molecule `O=C(CSc1ccc(Br)cc1)NC1CCS(=O)(=O)C1` (stereo not drawn), the “hERG current change (%, negative = inhibition) at 1uM” value worked out at 11%. Then `C/C(=N\NC(=O)c1ccccc1OCc1ccc(F)cc1)c1ccccn1`, with 11.3%; and `Cc1cc(C)n(-c2nc(NCC3CCCO3)c3c4c(sc3n2)COC(C)(C)C4)n1` (stereo not drawn), with 2.09%; and `COc1ccc(OC)c(S(=O)(=O)N2CCCC(C(=O)NCc3ccccn3)C2)c1` (stereo not drawn), with 9.02%. Consider `O=C(Cc1cccs1)N1CCCC(c2nc3c(nnn3Cc3cccc(Cl)c3)c(=O)[nH]2)C1` (stereo not drawn), for which the “hERG current change (%, negative = inhibition) at 1uM” value turned out to be 3.24%. Turning to `O=S(=O)(Nc1ncccn1)c1ccc(NC(=S)NCc2cccnc2)cc1`, the “hERG current change (%, negative = inhibition) at 1uM” value was determined as 11.3%. To `COc1ccc(CCN2CC3=C(C2=O)C(c2ccccc2)NC(=O)N3C)cc1OC` (stereo not drawn) belongs -4.27%.

Consider `Nc1cccc2c1C(=O)N(C(=O)/C=C/c1cccc(F)c1)C2=O`, for which the “hERG current change (%, negative = inhibition) at 1uM” value is given as 22.7%.

For `O=C(O)c1nc(N2CCCC2)ncc1Cl`, the “hERG current change (%, negative = inhibition) at 1uM” value is 17.3%. For `COc1ccccc1N1CCN(C(=O)c2ccc3[nH]c4c(c3c2)CC(C)CC4)CC1` (stereo not drawn), the “hERG current change (%, negative = inhibition) at 1uM” value is 14.1%.

As for `O=C1Oc2ccccc2C2(O)C3CCCCCC3C12` (stereo not drawn), the “hERG current change (%, negative = inhibition) at 1uM” value is listed as -5.84%.

Consider `O=C(/C=C/Nc1ccc(Cc2ccc(N/C=C/C(=O)C(F)(F)F)cc2)cc1)C(F)(F)F`, for which the “hERG current change (%, negative = inhibition) at 1uM” value was determined as 4.84%. Consider `COc1cccc(C(=O)NCCSc2ccc(Br)cc2)c1`, for which the “hERG current change (%, negative = inhibition) at 1uM” value amounted to 12.8%. Take `COc1ccc(Cl)cc1S(=O)(=O)NC(C)C(=O)NCc1ccccn1` (stereo not drawn): the “hERG current change (%, negative = inhibition) at 1uM” value came to 9.19%.

On to `CCOC(=O)C1CCCN(CCC(=O)Nc2ccc(Br)cc2)C1.Cl` (stereo not drawn), for which the “hERG current change (%, negative = inhibition) at 1uM” value is on record as 5.56%. For `S=c1[nH]nc(Cc2sc(-c3ccccc3)nc2-c2ccccc2)o1`, the “hERG current change (%, negative = inhibition) at 1uM” value was determined as 11.5%. As to `CCN1C=C(Cc2ccc(F)cc2)C2=C(C1)C(c1ccc(F)cc1)C(C#N)=C(N)O2` (stereo not drawn), the “hERG current change (%, negative = inhibition) at 1uM” value stood at 6.93%. For the molecule `O=C(O)/C(=C\C(=O)c1ccccc1)Nc1ccccc1`, the “hERG current change (%, negative = inhibition) at 1uM” value is 7.04%. To `O=C(Nc1ccc(N2CCCC2)cc1)c1cc2ccccc2o1` belongs 12.4%; to `CC(C)CNC(=O)CSc1nnc(-c2cccc(S(=O)(=O)N3CCCCC3)c2)o1`, 9.54%. For the molecule `NC(=O)c1c(NC(=O)Cn2cc([N+](=O)[O-])cn2)sc2c1CCCC2`, the “hERG current change (%, negative = inhibition) at 1uM” value was 2.68%. Regarding `CN(C)N=Nc1nc2c(c(=O)n(C)c(=O)n2C)n1C`, the “hERG current change (%, negative = inhibition) at 1uM” value worked out at 17.8%. As to `Cc1ccc2nc(NC(=O)CSCC(=O)OCC(=O)c3ccc(Br)cc3)sc2c1`, the “hERG current change (%, negative = inhibition) at 1uM” value turned out to be 13.7%. Regarding `O=C(CN1C(=O)CCSc2ccc(S(=O)(=O)N3CCOCC3)cc21)Nc1cccc(F)c1`, the “hERG current change (%, negative = inhibition) at 1uM” value was 7.76%.
